The values below come from the RNAGym collection of RNA variant scans (doi:10.7554/elife.90254).

The chains are these.
B1: LINE1-mini (parent)
chain: GGCAGAGCUCAACACAGCGUGGCAAAGUGGCUGUGGCUAGACUGCC

Read counts are not given, so values of variants with three or more changes are uncertain.

Variants of B1 are the subject of this data set. In words: self-cleavage, relative activity (ratio to wild type); higher = more cleavage; in vitro, sequencing; the parent is a self-cleaving ribozyme.
On to GGCAGAGCUCAACACAGCGUGGCAAAGUGGCUAUGGCUAGAACGCC [G33A C42A U43C], for which the self-cleavage came to 0.17.

For the variant GGCAGAGCUCAACACAGCGUGGCAAAGUGGCAGCGGCUAGACUGGU [U32A U34C C45G C46U], the self-cleavage turned out to be 0.04. For the variant GGCAGAGCUCAACACAGCGUGGCAAAGUGGCUCUGGGUAGACUGCU [G33C C37G C46U], the self-cleavage was found to be 0.03.

Consider GGCAGAGCUCAACACAGCGUGGCAAAGUGGCUAUGGCAAGCCUGCC [G33A U38A A41C], for which the self-cleavage was 0.01. For the variant GGCAGAGCUCAACACAGCGUGGCAAAGUGGCGUUGGCAAGACUGCC [U32G G33U U38A], the self-cleavage came to 0.1. Then GGCAGAGCUCAACACAGCGUGGCAAAGUGGCAGUGGCUCAACUGCC [U32A A39C G40A], with 0.01; and GGCAGAGCUCAACACAGCGUGGCAAAGUGGCGGUGUCUGGACUGGC [U32G G36U A39G C45G], with 0.01; and GGCAGAGCUCAACACAGCGUGGCAAAGUGGCUAGGGCUAGACUGGC [G33A U34G C45G], with 0.07. Next, GGCAGAGCUCAACACAGCGUGGCAAAGUGGCAGUUGCUAGAAAGCC [U32A G35U C42A U43A]: 0.02.

As for GGCAGAGCUCAACACAGCGUGGCAAAGUGGCCGAGACUGGACUGCC [U32C U34A G36A A39G], the self-cleavage stood at 0.04. Then GGCAGAGCUCAACACAGCGUGGCAAAGUGGCUAUUGCUAGGCUGCC [G33A G35U A41G], with 0.07; and GGCAGAGCUCAACACAGCGUGGCAAAGUGGCUUUUACUAGACUACC [G33U G35U G36A G44A], with 0.03.

With GGCAGAGCUCAACACAGCGUGGCAAAGUGGCUUUGGUUAGACCGCC [G33U C37U U43C], the self-cleavage turned out to be 0.02.

As for GGCAGAGCUCAACACAGCGUGGCAAAGUGGCUCUGGUUAGACUGUC [G33C C37U C45U], the self-cleavage was 0.03. Consider GGCAGAGCUCAACACAGCGUGGCAAAGUGGCGUUGGCUGGGCUCCC [U32G G33U A39G A41G G44C], for which the self-cleavage amounted to 0.05. Then GGCAGAGCUCAACACAGCGUGGCAAAGUGGCUAUUGCUAGAGUGCC [G33A G35U C42G], with 0.02; and GGCAGAGCUCAACACAGCGUGGCAAAGUGGCCCUGGCUAGUCUGCC [U32C G33C A41U], with 0.02. With GGCAGAGCUCAACACAGCGUGGCAAAGUGGCUUUAGCUGGACUGCG [G33U G35A A39G C46G], the self-cleavage is 0.04. Next, GGCAGAGCUCAACACAGCGUGGCAAAGUGGCAGUUGCUAGAGUGCC [U32A G35U C42G]: 0; GGCAGAGCUCAACACAGCGUGGCAAAGUGGCAGUGGCUAGACUACG [U32A G44A C46G]: 0. For the variant GGCAGAGCUCAACACAGCGUGGCAAAGUGGCGGUGGCUAGACUUCA [U32G G44U C46A], the self-cleavage is 0.02. Then GGCAGAGCUCAACACAGCGUGGCAAAGUGGCCGGGGCCAGACUGCC [U32C U34G U38C], with 0.04. On to GGCAGAGCUCAACACAGCGUGGCAAAGUGGCUUUGGCUAGAAUGCU [G33U C42A C46U], for which the self-cleavage worked out at 0.17. Next, GGCAGAGCUCAACACAGCGUGGCAAAGUGGCUAUGGCUAGACGGAC [G33A U43G C45A]: 0.03. Consider GGCAGAGCUCAACACAGCGUGGCAAAGUGGCUUUGGCUAGACUGAU [G33U C45A C46U], for which the self-cleavage stood at 0.02. Next, GGCAGAGCUCAACACAGCGUGGCAAAGUGGCAGUGGCUAGACAGAC [U32A U43A C45A]: 0.02; GGCAGAGCUCAACACAGCGUGGCAAAGUGGCUAUGGAUAGACUGUG [G33A C37A C45U C46G]: 0.21; GGCAGAGCUCAACACAGCGUGGCAAAGUGGCGUUGUCUAGACUGAC [U32G G33U G36U C45A]: 0.09.

Regarding GGCAGAGCUCAACACAGCGUGGCAAAGUGGCAGUGGCCCGACUACC [U32A U38C A39C G44A], the self-cleavage amounted to 0.07. Consider GGCAGAGCUCAACACAGCGUGGCAAAGUGGCUUUGGCUAGAUAGCC [G33U C42U U43A], for which the self-cleavage was found to be 0.06. Take GGCAGAGCUCAACACAGCGUGGCAAAGUGGCAGUGGCUACAAUGCC [U32A G40C C42A]: the self-cleavage is 0.04. Turning to GGCAGAGCUCAACACAGCGUGGCAAAGUGGUUGUGGCUAGACAGCU [C31U U43A C46U], the self-cleavage was found to be 0.03. In the case of GGCAGAGCUCAACACAGCGUGGCAAAGUGGCAGUGGCUCGAUUGCC [U32A A39C C42U], the self-cleavage stood at 0.04. GGCAGAGCUCAACACAGCGUGGCAAAGUGGCCGUGCCUAGAAUGCC [U32C G36C C42A]: the self-cleavage turned out to be 0.04. For the variant GGCAGAGCUCAACACAGCGUGGCAAAGUGGCGGUGGCUAUACUUCC [U32G G40U G44U], the self-cleavage was determined as 0.04. Next, GGCAGAGCUCAACACAGCGUGGCAAAGUGGCUAGGGCUAGACUGCA [G33A U34G C46A]: 0.01. Then GGCAGAGCUCAACACAGCGUGGCAAAGUGGCUAUGGAUAGACUGGC [G33A C37A C45G], with 0.03; and GGCAGAGCUCAACACAGCGUGGCAAAGUGGCAGUGUCUAGGUUGCC [U32A G36U A41G C42U], with 0.1.

Turning to GGCAGAGCUCAACACAGCGUGGCAAAGUGGCGGAGGCUCGACUGCC [U32G U34A A39C], the self-cleavage amounted to 0.04. Consider GGCAGAGCUCAACACAGCGUGGCAAAGUGGCCUUGGCCAGACUGCC [U32C G33U U38C], for which the self-cleavage came to 0.04. Next, GGCAGAGCUCAACACAGCGUGGCAAAGUGGCAGUGGCCAGACUGUC [U32A U38C C45U]: 0.01. Then GGCAGAGCUCAACACAGCGUGGCAAAGUGGCUAUGGCUACACUGUC [G33A G40C C45U], with 0.12; and GGCAGAGCUCAACACAGCGUGGCAAAGUGGCGGUGGCUAGAAUUCC [U32G C42A G44U], with 0.02; and GGCAGAGCUCAACACAGCGUGGCAAAGUGGCCGUGGAUAGACUGUC [U32C C37A C45U], with 0.05. For the variant GGCAGAGCUCAACACAGCGUGGCAAAGUGGCCGUGGCCAGUCUCCC [U32C U38C A41U G44C], the self-cleavage was 0. As for GGCAGAGCUCAACACAGCGUGGCAAAGUGGCUCUGGCUAGACUAAC [G33C G44A C45A], the self-cleavage was found to be 0.03. Take GGCAGAGCUCAACACAGCGUGGCAAAGUGGCGAUGGCUAGACUACC [U32G G33A G44A]: the self-cleavage came out at 0.12. Then GGCAGAGCUCAACACAGCGUGGCAAAGUGGCCGUGGCUAAAAUGCC [U32C G40A C42A], with 0.04. In the case of GGCAGAGCUCAACACAGCGUGGCAAAGUGGCUUUGGAUAGCCUGCC [G33U C37A A41C], the self-cleavage is 0.06. As for GGCAGAGCUCAACACAGCGUGGCAAAGUGGCAGUGGCUAGAUCCCC [U32A C42U U43C G44C], the self-cleavage worked out at 0.01. Regarding GGCAGAGCUCAACACAGCGUGGCAAAGUGGCGAUGGCUCGACUGCC [U32G G33A A39C], the self-cleavage stood at 0.01. Next, GGCAGAGCUCAACACAGCGUGGCAAAGUGGCCGUGGCUAGGCUGUC [U32C A41G C45U]: 0.06; GGCAGAGCUCAACACAGCGUGGCAAAGUGGCCUUGGGUAGAAUGCC [U32C G33U C37G C42A]: 0.11; GGCAGAGCUCAACACAGCGUGGCAAAGUGGCCGUGGGUAGACUGCA [U32C C37G C46A]: 0.05.

Consider GGCAGAGCUCAACACAGCGUGGCAAAGUGGCUAUGUCUAGACUCCC [G33A G36U G44C], for which the self-cleavage worked out at 0.05.

As for GGCAGAGCUCAACACAGCGUGGCAAAGUGGCAGUGGCUAAACUCCC [U32A G40A G44C], the self-cleavage is 0.07.
